# ± gives the standard deviation of the averaged measurements. In all, about 33,000 sequences were measured (“E-score (dimensionless, -0.5 to 0.5)”: median about -0.049, highest 2% from about 0.37 on). This is one part of the list.
# Test system: T1, PmTbr T-box DNA-binding domain (GST fusion)
# T1 sequence: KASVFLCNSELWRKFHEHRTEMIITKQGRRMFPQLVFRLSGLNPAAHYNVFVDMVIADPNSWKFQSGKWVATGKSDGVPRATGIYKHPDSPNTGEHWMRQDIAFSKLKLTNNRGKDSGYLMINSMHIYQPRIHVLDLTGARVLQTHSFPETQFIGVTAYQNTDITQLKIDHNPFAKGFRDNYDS
# Assay: PBM E-score of 8-mer (E-score (dimensionless, -0.5 to 0.5)); Tbr is Tbrain of the sea star Patiria miniata (Pm) or the sea urchin Strongylocentrotus purpuratus (Sp); higher = stronger binding preference; most listed sequences are background and not binding sites
# Settings: the construct has about 5 more residues each side
# Summary of the method: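 Primer extension turned Universal Agilent oligonucleotide arrays double-stranded. They were incubated with 200 nM protein in PBS (pH 7.5); the protein was a GST-fused Tbr T-box DNA-binding domain expressed in BL21 E. coli at 20 °C and purified on glutathione. Every ungapped 8-mer was scored from the scanned, quantified probe intensities, and the Universal PBM Analysis Suite gave each an enrichment E-score averaged over duplicate arrays.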
row,Sequence,PBM E-score of 8-mer
1,AATATTTG,0.0885 ± 0.074
2,CTTCCTGA,-0.188 ± 0.079
3,CGATTGAC,0.0922 ± 0.053
4,ATACGGGA,-0.232 ± 0.0065
5,ACCCGACA,0.266 ± 0.011
6,CCTATATA,0.175 ± 0.035
7,CAAGCTAA,-0.149 ± 0.029
8,ACGCCAGA,0.0369 ± 0.0034
9,AGACTCCG,-0.194 ± 0.011
10,CATATCAG,-0.15 ± 0.12
11,GATTGCGA,0.273 ± 0.036
12,CGGTTGAC,0.21 ± 0.018
13,AGATTCTG,-0.0318 ± 0.08
14,CGTAAAGA,-0.272 ± 0.013
15,CTGCTAGA,0.113 ± 0.039
16,CAGACCCA,-0.0557 ± 0.00088
17,GCGTCCTA,-0.189 ± 0.091
18,CCCGGCCG,-0.0994 ± 0.0049
19,GGGTACCC,0.0133 ± 0.13
20,CAAAGCCA,-0.257 ± 0.0098
21,CATACATC,-0.0287 ± 0.017
22,AATACTGG,-0.328 ± 0.014

row,Sequence,PBM E-score of 8-mer
1,CCCAGCAC,0.141 ± 0.038
2,AATTACAA,-0.0953 ± 0.12
3,AGATTTAT,-0.137 ± 0.015
4,AACATAAA,-0.134 ± 0.054
5,GGGGACGA,-0.151 ± 0.12
6,ACAACACG,0.251 ± 0.017
7,TTAGGCAA,0.0112 ± 0.066
8,CCATACGG,-0.15 ± 0.015
9,ACTAGAGG,-0.17 ± 0.027
10,ATCACTCA,0.0656 ± 0.025
11,GGGAGCGA,0.0751 ± 0.0085
12,GATCTAAA,-0.0647 ± 0.047
13,GATACTCA,-0.141 ± 0.022
14,GACTCGCC,-0.152 ± 0.047
15,CCGAGTGA,0.131 ± 0.02
16,GGGATGCA,-0.256 ± 0.041
17,ACAATCTA,-0.0816 ± 0.0069
18,GCTTAGCC,-0.151 ± 0.029
19,CATCTGGG,-0.104 ± 0.032
20,CGCACACC,0.325 ± 0.022
21,ACGGCTTA,0.0316 ± 0.018
22,ATCTACCG,-0.157 ± 0.067

row,Sequence,PBM E-score of 8-mer
1,TGACTGAA,0.0885 ± 0.055
2,AACTAGAG,-0.0673 ± 0.0029
3,AGACACGA,-0.0791 ± 0.023
4,TAACTATA,-0.0788 ± 0.12
5,GCGGCAGC,0.0309 ± 0.0077
6,GCCCAGGA,-0.197 ± 0.0026
7,AATCGAAT,-0.0926 ± 0.029
8,GACTAGCA,0.0457 ± 0.018
9,CTTTAGAA,-0.133 ± 0.058
10,ACGTAGGA,-0.217 ± 0.055
11,ACGCTGTA,0.151 ± 0.022
12,CTATAATC,-0.101 ± 0.028
13,CTGCCGCA,-0.142 ± 0.029
14,CACCCGAA,0.223 ± 0.029
15,AATGCCGA,-0.0849 ± 0.043
16,GTCGTCGA,0.0889 ± 0.015
17,AGCGCCGC,0.117 ± 0.044
18,AGCAGAGA,-0.236 ± 0.089
19,GGCGAAAA,0.0979 ± 0.072
20,ACGAAATG,0.00596 ± 0.0068
21,GAAGTCCA,-0.152 ± 0.012
22,GCATTTAA,-0.00154 ± 0.098

row,Sequence,PBM E-score of 8-mer
1,CCATCGCG,0.0886 ± 0.0034
2,CCGAGCAC,-0.0347 ± 0.014
3,AGAAGGCA,1.5e-05 ± 0.00087
4,AGTACGCC,-0.159 ± 0.03
5,ACGGTCTC,-0.214 ± 0.0017
6,CACATCAG,0.162 ± 0.035
7,GGGTAGTA,-0.2 ± 0.0041
8,ATTAGTCG,-0.073 ± 0.029
9,ACTCCCTA,-0.155 ± 0.06
10,CGGCTTAG,-0.0926 ± 0.017
11,CCTAACAC,0.4369 ± 0.0041
12,AAACTTCT,-0.236 ± 0.043
13,GGCAAGCC,-0.13 ± 0.013
14,AATTTGTG,0.0634 ± 0.039
15,AAGGACAA,-0.0539 ± 0.012
16,AACGCACT,0.0213 ± 0.03
17,CTGGGACA,-0.223 ± 0.073
18,CCGGCTAA,-0.106 ± 0.042
19,GCGTATTA,-0.0361 ± 0.04
20,GTAGCGCA,-0.0861 ± 0.043

# Source: the supplement of paper PMC4166925
